Over roughly 33,000 sequences, “E-score (-0.5 to 0.5)” has its median near -0.035; the highest 2% begin near 0.35. The list shows a part of the results.
Target: T1, Pdr3 (UniProt P33200)
T1 sequence: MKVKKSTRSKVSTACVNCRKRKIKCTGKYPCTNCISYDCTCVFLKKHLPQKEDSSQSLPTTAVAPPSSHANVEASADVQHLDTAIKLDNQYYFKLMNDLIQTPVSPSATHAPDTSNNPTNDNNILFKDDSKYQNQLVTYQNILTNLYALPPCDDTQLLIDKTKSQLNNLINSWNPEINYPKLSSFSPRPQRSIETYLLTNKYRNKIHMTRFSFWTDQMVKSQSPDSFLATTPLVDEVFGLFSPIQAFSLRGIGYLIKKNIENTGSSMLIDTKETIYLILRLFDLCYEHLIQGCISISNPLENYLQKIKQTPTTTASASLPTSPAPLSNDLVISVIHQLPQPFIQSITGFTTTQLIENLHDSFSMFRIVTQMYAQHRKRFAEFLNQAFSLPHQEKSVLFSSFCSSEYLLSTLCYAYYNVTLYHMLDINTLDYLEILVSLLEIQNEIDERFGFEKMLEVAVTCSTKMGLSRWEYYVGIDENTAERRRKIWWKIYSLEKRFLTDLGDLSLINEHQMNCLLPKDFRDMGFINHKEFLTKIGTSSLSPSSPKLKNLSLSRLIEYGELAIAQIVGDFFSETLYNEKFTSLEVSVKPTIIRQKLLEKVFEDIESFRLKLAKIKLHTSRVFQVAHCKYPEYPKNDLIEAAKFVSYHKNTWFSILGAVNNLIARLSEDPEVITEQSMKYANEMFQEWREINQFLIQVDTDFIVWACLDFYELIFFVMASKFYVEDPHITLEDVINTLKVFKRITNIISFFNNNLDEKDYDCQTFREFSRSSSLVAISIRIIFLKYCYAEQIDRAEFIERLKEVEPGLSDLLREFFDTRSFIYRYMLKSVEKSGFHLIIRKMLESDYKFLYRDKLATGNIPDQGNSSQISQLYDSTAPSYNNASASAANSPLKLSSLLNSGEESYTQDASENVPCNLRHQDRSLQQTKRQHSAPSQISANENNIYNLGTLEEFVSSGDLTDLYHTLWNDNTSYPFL
Test: PBM E-score (8-mer binding enrichment) (E-score (-0.5 to 0.5)); higher = stronger / more preferred TF binding; most listed sequences are background and not binding sites
Settings: protein concentration: 200 nM; construct: GST-full length
Protocol: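 Universal 'all 10-mer' protein binding microarrays (Agilent AMADID 015681) probed with GST-tagged S. cerevisiae TFs (full-length or DBD) made by in vitro transcription/translation (PURExpress), about 100-200 nM. Bound TF was detected with fluorescent anti-GST. Each ungapped 8-mer (which stands for itself and its reverse complement) is scored by the PBM enrichment score (E-score), a modified Wilcoxon-Mann-Whitney statistic from -0.5 to +0.5, computed with the Universal PBM Analysis Suite. Scale: above 0.35 generally sequence-specific binding.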

| Sequence | PBM E-score |
| --- | --- |
| AAACAACG | 0.0211 |
| AGGCCTTG | -0.23 |
| GCCGTCGA | 0.104 |
| TCACCCAA | 0.0325 |
| CAACCACC | 0.013 |
| GGCTCCCA | -0.268 |
| ATGGAGGG | -0.276 |
| ATTGCCGC | 0.0297 |
| AAGATGGG | -0.163 |
| CGTTCTAA | 0.0223 |
| AAAATATC | 0.0361 |
| AGAATAAC | -0.162 |
| CGGTACAA | 0.138 |
| AGTCCATG | -0.0461 |
| ACCTGAAC | -0.176 |
| GCTGATCC | 0.214 |
| GAGTTTCA | -0.0584 |
| CCACGCGC | -0.202 |
| CCGTTGTA | 0.279 |
| GCGTGTAC | -0.127 |
| GATTTCGC | 0.267 |
| AGTGACCC | -0.0252 |
| ATTGATCA | -0.0661 |
| AATATCGC | 0.24 |
| CGCGATTA | 0.173 |

| Sequence | PBM E-score |
| --- | --- |
| CCCAAACA | -0.0368 |
| GCAGCTAC | 0.0148 |
| AAGATTTA | -0.00253 |
| CGCCTAAA | -0.0326 |
| AGGTCAGC | -0.028 |
| CCCATGCG | -0.0983 |
| TATATCAA | 0.104 |
| AATACTTG | -0.11 |
| ATAGATCG | 0.0236 |
| CACGCAGC | -0.0366 |
| AGTACGTC | 0.0162 |
| CAAGTTAG | 0.0297 |
| CTCTAAAA | -0.142 |
| AGGGTATC | -0.196 |
| AACACGTC | -0.151 |
| AACAACCT | -0.137 |
| CCGCCACA | 0.165 |
| CTTTTTCC | 0.206 |
| AGATATAT | 0.119 |
| CGCCAACC | 0.0221 |
| GGTAGAAA | -0.125 |
| GCATCTCC | 0.0623 |
| ACACTCTC | 0.0752 |
| AGCGAAAC | 0.151 |
| CTAACTAG | -0.00039 |

| Sequence | PBM E-score |
| --- | --- |
| GCGTCGAA | 0.114 |
| CCTGCGAA | -0.0887 |
| CAGCAGAA | -0.0552 |
| CCCATCCC | 0.133 |
| AGAAGAAC | -0.0559 |
| CGCATGAA | 0.0575 |
| AATGTATC | 0.0757 |
| CACACACA | -0.0991 |
| AGGCACAT | -0.0682 |
| CTACACGA | -0.0311 |
| AAACATCC | 0.166 |
| ATGGCAAA | -0.123 |
| AACATGAG | -0.137 |
| ATGTACCC | -0.158 |
| ACAACCAG | -0.0298 |
| AATAGAGT | -0.255 |
| CAAGTGAG | -0.228 |
| CAATGTAA | 0.0665 |
| TAAAACGA | -0.17 |
| TCCCGTCA | 0.195 |
| CTCCACAG | -0.262 |
| AATCGAGG | 0.104 |
| AATGTCTG | -0.0793 |
| CGCGATGA | 0.152 |
| AAAACCGA | 0.112 |

| Sequence | PBM E-score |
| --- | --- |
| AGCAGGGA | -0.125 |
| ATTAATCA | 0.0039 |
| TCATGACA | 0.0587 |
| GAACGACC | -0.263 |
| CCTGAAGA | -0.0192 |
| ACCTGCCA | -0.131 |
| GGCTGCAA | 0.189 |
| ATCCCAGA | -0.204 |
| CCACAGAG | -0.124 |
| TCTATGAA | -0.164 |
| CCAAAACA | -0.224 |
| ACATTCCA | -0.0365 |
| TGCTTCAA | -0.127 |
| AGGCCGCC | -0.00411 |
| ACCGGCCA | 0.096 |
| GAGATCCC | 0.181 |
| AATGGATC | 0.0773 |
| GAGATAAA | 0.122 |
| ACCTCAGA | -0.0977 |
| AGGCAGTG | -0.092 |
| ACCTCTCG | -0.0741 |
| ATGTAGCG | -0.0209 |
| ATAGAGGA | -0.219 |
| CGCGAGAG | -0.0205 |
| ACGGAAAA | 0.403 |

| Sequence | PBM E-score |
| --- | --- |
| AACCGGAC | 0.271 |
| ATGGTCAC | 0.0623 |
| TGTGGTAA | -0.125 |
| AGTCACAT | -0.0705 |
| CTCACAAC | 0.0403 |
| TAATCGGA | 0.324 |
| ATCCTCGA | -0.00063 |
| CGTTAAGA | -0.136 |
| CTCCGACA | 0.0789 |
| ACTCTTGG | -0.233 |
| CCCATCGG | 0.259 |
| AGGCTCTA | -0.198 |
| TCAAGAGA | -0.168 |
| ATCGCTCC | -0.0532 |
| AGTCATCC | 0.00825 |
| CATAAGGA | -0.196 |
| GCGCGTAC | 0.0923 |
| CAGCCCGG | 0.309 |
| ATAGGGTG | -0.121 |
| GTTGGATA | -0.0683 |
| TCATATCA | -0.0642 |
| CCATCCAC | -0.0699 |
| AACTGATC | 0.0523 |
| CCGCAACG | 0.176 |
| ATTATCAA | -0.00314 |

| Sequence | PBM E-score |
| --- | --- |
| ACTAATCA | 0.0845 |
| CAATTTCG | -0.0923 |
| CAGGATCG | 0.0205 |
| AAAGAGAG | -0.0264 |
| CCCGGAAA | 0.449 |
| ACTAGCGC | -0.0608 |
| ACTGGCGA | -0.156 |
| ACGACATC | -0.0554 |
| CACTACCC | -0.169 |
| AATGGAAG | 0.0364 |
| CTGCCGAA | 0.1 |
| ACACCGAG | 0.18 |
| CCTGGAAG | -0.203 |
| ATGGATGA | -0.0953 |
| ACCTAGTC | -0.124 |
| AGGGCTAT | -0.349 |
| TCACATCA | -0.0311 |
| CCTCATGA | -0.0842 |
| GACCACCC | -0.0682 |
| TACACGAA | 0.19 |
| ATCCGTTG | 0.376 |
| AACGTATG | -0.244 |
| ACCACCCG | 0.277 |
| AGGAGTTA | -0.0172 |
| TACGGGAA | 0.261 |

| Sequence | PBM E-score |
| --- | --- |
| CGGGAGAA | 0.201 |
| CAAGAGGG | -0.257 |
| AAATTACG | -0.141 |
| ACGAACTG | -0.0643 |
| AGGGATGC | -0.379 |
| ACTATGAC | -0.127 |
| ATTTGTCG | 0.0947 |
| CCTATCCA | -0.222 |
| CCGGAGCC | 0.403 |
| GCCTGGCC | 0.00694 |
| ATACGATA | -0.131 |
| ACCTTGAA | -0.275 |
| GACTATGC | -0.139 |
| AAGCCTTG | -0.115 |
| ACGTAAGT | -0.172 |
| AGGGGCTC | -0.195 |
| TACCCTCA | -0.0883 |
| GCCCAGTA | 0.0632 |
| AAGGTACC | -0.0179 |
| GTTACAAA | -0.0148 |
| CCAGCGCA | 0.0268 |
| ACTTGTAC | -0.139 |
